# According to patent US20210107998A1 (Boehringer Ingelheim, published 2021):
# Legend:
# Test in all cases: cell-based or functional assay
# [1] = target: Recombinant cynomolgus BAFF trimer (Boehringer Ingelheim Pharmaceuticals, Inc.) (cynomolgus, UniProt A0A2K5V2X4 134-285)
# [2] = target: T1, Recombinant human BAFF trimer (Boehringer Ingelheim Pharmaceuticals, Inc.) (human, UniProt Q9Y275 partial chain, limits assumed)
# [3] = target: membrane-bound human BAFF on fixed CHO-K1 cells (human, UniProt Q9Y275 1-285)
# [4] = target: Recombinant human BAFF 60mer (Boehringer Ingelheim Pharmaceuticals, Inc.) (human, UniProt Q9Y275 partial chain, limits assumed)
# [5] = target: T1, Recombinant human BAFF trimer …; remark: listed apart in the source
binder,measurement,setting,value
Control Fusion Protein Antagonist 2 (non-antibody BAFF selective antagonist) (BAFF (2)) (Fc fusion) GCKWDLLIKQWVCDPLGSGSATGGSGSTASSGSGSATHMLPGCKWDLLIKQWVCDPLGGGGGV[letters of human IgG1 Fc not shown],"IC50 Geomean, NFkB luciferase reporter, human BAFFR-CHO cells",[1],0.602 nM
same,"IC90 Geomean, NFkB luciferase reporter, human BAFFR-CHO cells",[1],1.09 nM
same,"IC50, NFkB luciferase reporter, human BAFFR-CHO cells",[2],0.173 nM
same,"IC90, NFkB luciferase reporter, human BAFFR-CHO cells",[2],0.914 nM
same,"IC50, NFkB luciferase reporter, human BAFFR-CHO cells stimulated with fixed human BAFF CHO-K1 cells",[3],0.581 nM
same,"IC90, NFkB luciferase reporter, human BAFFR-CHO cells stimulated with fixed human BAFF CHO-K1 cells",[3],3.68 nM
same,"IC50, NFkB luciferase reporter, human BAFFR-CHO cells",[4],0.043 nM
same,"IC90, NFkB luciferase reporter, human BAFFR-CHO cells",[4],0.107 nM
same,"IC50 Geomean, NFkB luciferase reporter, human TACI-CHO cells",[5],0.829 nM
same,"IC90 Geomean, NFkB luciferase reporter, human TACI-CHO cells",[5],1.95 nM
